Results: paper PMC12136788
This is one part of the list.

B1: chr13:48512728:48512895:-|CDS|ENSG00000136161|control|control|control (ssRNA)
RNA: GGGAGUUCUACAGUCCGACGAUCCUUUACCUGGGGUCAUAAUGCUUAUAGCCAGCUGGGCAAUGGGACAACUAAUCAUGGUUUAGUGCCCUGUCAUAUCUCUACUAAUCUGUCAAACAAACAAGUCAUUGAAGUUGCCUGUGGCAACAGAGGAUUGAGCAUCA
B2: chr9:88477803:88477904:+|3pUTR|ENSG00000106723|msi1|FALSE|bound_elsewhere (ssRNA)
RNA: GGGAGUUCUACAGUCCGACGAUCGACAAUACAAGACAUGAAUCUAUGUAUAAAAUUUAUCGGCCUUUCUCAUUUACCUGCUCUAGUAUUAUUGUAUUGUGUGUGCGUGCGUGUGUGAUGUCAGGCUGCCACGUAAAACUUCAGCAACAGAGGAUUGAGCAUCA
B3: chr1:114568131:114568247:-|CDS|ENSG00000116752|unk|total|mutant (ssRNA)
RNA: GGGAGUUCUACAGUCCGACGAUCUUCCCGUUGGGUAUCCCUGGUCAGUAAGAAUUAUGAGAUUGAACGGACUAUUGUUCAGCCCGAAAAUGAAAUCUAUCAAAUUAAGCAGCAACAUGGAGAGGCAAACAAAGAAAACAUCCGCAACAGAGGAUUGAGCAUCA
B4: chr3:98799561:98799662:-|CDS|ENSG00000057019|msi1|FALSE|unique (ssRNA)
RNA: GGGAGUUCUACAGUCCGACGAUCUUCAGUUGGUCAGCCCUCCACAUCCACUUUCAAGGCUACGGGGAACCAACCUCCCCCACUAGUGGGAACUUACAAUACACUUCUCUCCAGGACUGACAGCUGCUCCUCAGCCCAGGCCCACAACAGAGGAUUGAGCAUCA
B5: chr12:51291590:51292344:-|CDS|ENSG00000110934|control|control|control (ssRNA)
RNA: GGGAGUUCUACAGUCCGACGAUCUUCACCCACCAGCCCUAGGGCCUCCUUGGGGACUGGGACUGCAAGUCCUAGGACCUCCCUAGAGGUCUCUCCUAAUCCAGAACCACCAGAGAAGCCAGUAAGAACUCCUGAGGCCAAAGACAACAGAGGAUUGAGCAUCA
B6: ENSG00000070961:be:win_3401|CDS|ENSG00000070961|bound_else_gene|NA|bound_elsewhere_windowed (ssRNA)
RNA: GGGAGUUCUACAGUCCGACGAUCAACCGGAAUCAAGAAGUUCGAUUCACAACUUUAUGACACAUCCUGAGUUUAGGAUAGAAGAUUCAGAGCCUCAUAUCCCCCUUAUUGAUGACACUGAUGCCGAAGAUGAUGCUCCUACAACAACAGAGGAUUGAGCAUCA

Biological target: MSI1 full-length (mouse, UniProt Q61474 1-362)
Chain of UniProt Q61474 (Q61474 whole entry): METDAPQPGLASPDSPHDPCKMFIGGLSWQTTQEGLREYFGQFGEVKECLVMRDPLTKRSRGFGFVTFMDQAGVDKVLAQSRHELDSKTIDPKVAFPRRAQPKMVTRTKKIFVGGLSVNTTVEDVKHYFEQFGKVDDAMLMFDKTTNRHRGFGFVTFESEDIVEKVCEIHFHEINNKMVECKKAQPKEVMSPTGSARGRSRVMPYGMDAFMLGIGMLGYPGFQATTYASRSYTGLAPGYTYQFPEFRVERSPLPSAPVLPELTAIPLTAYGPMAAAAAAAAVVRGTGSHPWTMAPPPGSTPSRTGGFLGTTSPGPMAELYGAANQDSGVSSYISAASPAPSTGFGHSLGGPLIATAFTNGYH
Assay: nsRBNS (natural sequence RNA bind-n-seq); RBNS binding buffer (assumed for nsRBNS): 25 mM Tris pH 7.5, 150 mM KCl, 3 mM MgCl2, 0.01% Triton X-100, 500 ug/ml BSA, 20 U/ml SUPERase-In, 4 C; UNK is unkempt and MSI1 is Musashi-1; names of the RNAs are library labels; protein concentration not given here; high values mean tight binding

**Q.** B1 was tested. Which binding signal did it give?
**A.** The binding signal was 0.45 enrichment R.

**Q.** For B2, which binding signal is on record?
**A.** Its binding signal is 0.861 enrichment R.

**Q.** B3 was tested. Which binding signal did it give?
**A.** Its binding signal is 0.6 enrichment R.

**Q.** How did the binding signal turn out when B4 was run?
**A.** The binding signal was 0.51 enrichment R.

**Q.** For B5, which binding signal is on record?
**A.** Its binding signal is 0.477 enrichment R.

**Q.** With B6 as the binder, how does the binding signal read?
**A.** The binding signal was 0.458 enrichment R.
